{
  "source": "paper PMC4336329",
  "about": "(PLoS ONE, 2015)",
  "note": "Screen size: about 310,000 compounds; about 2,200 (0.71%) showed an effect of 50% or more. Effects have a minus sign here. Some of the results follow.",
  "data": [
    {"target": "human ether-à-go-go-related gene (hERG) potassium channel (human, UniProt Q12809)", "sequence (Q12809 whole entry, looked up)": "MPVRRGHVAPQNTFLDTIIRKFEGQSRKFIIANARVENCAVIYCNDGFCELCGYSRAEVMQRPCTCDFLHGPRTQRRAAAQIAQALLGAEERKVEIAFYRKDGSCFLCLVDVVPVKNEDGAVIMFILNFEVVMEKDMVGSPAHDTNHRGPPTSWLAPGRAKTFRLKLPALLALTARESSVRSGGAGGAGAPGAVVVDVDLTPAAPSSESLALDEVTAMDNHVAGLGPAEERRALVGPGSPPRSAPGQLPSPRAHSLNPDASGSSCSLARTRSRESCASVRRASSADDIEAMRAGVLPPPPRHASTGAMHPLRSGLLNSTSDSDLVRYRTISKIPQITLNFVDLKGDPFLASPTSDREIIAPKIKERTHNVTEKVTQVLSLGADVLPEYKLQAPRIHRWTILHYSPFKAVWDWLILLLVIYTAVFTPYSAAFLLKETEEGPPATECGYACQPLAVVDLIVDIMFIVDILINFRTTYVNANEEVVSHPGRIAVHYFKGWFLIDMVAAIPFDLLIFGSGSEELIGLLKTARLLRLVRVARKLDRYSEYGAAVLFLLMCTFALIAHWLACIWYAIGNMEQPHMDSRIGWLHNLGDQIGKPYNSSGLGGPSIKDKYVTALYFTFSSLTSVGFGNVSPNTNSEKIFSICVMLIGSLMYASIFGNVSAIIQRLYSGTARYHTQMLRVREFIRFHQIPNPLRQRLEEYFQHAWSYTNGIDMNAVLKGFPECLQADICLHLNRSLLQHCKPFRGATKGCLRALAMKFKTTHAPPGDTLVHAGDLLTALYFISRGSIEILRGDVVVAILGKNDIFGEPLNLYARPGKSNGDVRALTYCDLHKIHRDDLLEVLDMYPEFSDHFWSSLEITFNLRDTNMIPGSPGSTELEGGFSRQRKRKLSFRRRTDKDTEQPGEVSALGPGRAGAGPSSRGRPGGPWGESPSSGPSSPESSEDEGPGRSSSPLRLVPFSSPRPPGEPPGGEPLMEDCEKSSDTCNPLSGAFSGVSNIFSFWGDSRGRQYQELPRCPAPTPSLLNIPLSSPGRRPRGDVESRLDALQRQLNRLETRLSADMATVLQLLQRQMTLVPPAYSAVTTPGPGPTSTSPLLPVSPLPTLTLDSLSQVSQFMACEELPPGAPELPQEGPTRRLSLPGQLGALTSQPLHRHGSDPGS", "test": "primary screen, population patch clamp on CHO cells stably expressing hERG", "units": {"hERG current change (%, negative = inhibition) at 1uM": "%"}, "values": [
      {"smiles": "CCCCN(CC)CCNC(=O)c1cn(-c2ccc(Cl)cc2)c(=O)c2ccccc12", "hERG current change (%, negative = inhibition) at 1uM": -81.6},
      {"smiles": "CCOC(=O)Nc1ccc2c(c1)N(C(=O)CN(CC)CC)c1ccccc1CC2.Cl", "hERG current change (%, negative = inhibition) at 1uM": 9.02},
      {"smiles": "O=C(Nc1ccccc1N1CCOCC1)c1ccc(Cl)c(S(=O)(=O)N2CCCC2)c1", "hERG current change (%, negative = inhibition) at 1uM": 4.39},
      {"smiles": "Cc1ccc(/C=C2\\CCC3=C2OC(N)=C(C#N)C3c2ccc(C)cc2)cc1", "note": "(centres unmarked)", "hERG current change (%, negative = inhibition) at 1uM": 13.7},
      {"smiles": "Cc1cc(O)ccc1Nc1nc(-c2sc(N)nc2C)cs1", "hERG current change (%, negative = inhibition) at 1uM": -5.27},
      {"smiles": "COc1cc(=O)n(C)c2c(O)cccc12", "hERG current change (%, negative = inhibition) at 1uM": 20},
      {"smiles": "O=C(NCCOC(=O)c1ccc(Cl)cc1)c1ccc[nH+]c1.[Cl-]", "hERG current change (%, negative = inhibition) at 1uM": 4.8},
      {"smiles": "NNC(=O)c1sc2cc(C(F)(F)F)cnc2c1-c1cccnc1", "hERG current change (%, negative = inhibition) at 1uM": 17},
      {"smiles": "CCc1ccccc1NC1=CC(=O)CC(C)(C)C1", "hERG current change (%, negative = inhibition) at 1uM": 12.2},
      {"smiles": "COc1ccc(C(=O)Nc2cc3c4c(c2)C(C)C(=O)N4CCC3)c(OC)c1", "note": "(centres unmarked)", "hERG current change (%, negative = inhibition) at 1uM": 1.24},
      {"smiles": "CCOC(=O)Cc1csc(NC(=O)/C=C/c2ccc(OC)cc2)n1", "hERG current change (%, negative = inhibition) at 1uM": 14.5},
      {"smiles": "COc1cc(O)c(C(CCN2CCCCC2)c2cc(OC)c(OC)c(OC)c2)c(OC)c1", "note": "(centres unmarked)", "hERG current change (%, negative = inhibition) at 1uM": 11.6},
      {"smiles": "O=S1(=O)C=CC(Nc2cccc(Cl)c2)C1", "note": "(centres unmarked)", "hERG current change (%, negative = inhibition) at 1uM": 15.6},
      {"smiles": "O=C(CSc1ncccn1)NCc1ccc(Cl)cc1", "hERG current change (%, negative = inhibition) at 1uM": 7.24},
      {"smiles": "COc1ccccc1N(Cc1cc(=O)[nH]c2ccccc12)C(=O)c1ccc([N+](=O)[O-])cc1", "hERG current change (%, negative = inhibition) at 1uM": 1.95},
      {"smiles": "CCOc1ccc(NC(=S)N(CC)Cc2ccccc2)cc1", "hERG current change (%, negative = inhibition) at 1uM": 4.64},
      {"smiles": "COc1ccc(C(=O)c2c(C)oc3ccc(O)c(CN4CCOCC4)c23)cc1", "hERG current change (%, negative = inhibition) at 1uM": -0.447},
      {"smiles": "CC1=C(C(=O)Nc2ccccc2)C(c2ccco2)C(C#N)=C(SCC(N)=O)N1", "note": "(centres unmarked)", "hERG current change (%, negative = inhibition) at 1uM": -1.52},
      {"smiles": "N#C/C(=N\\Nc1ccc(F)cc1)C(=O)C1CC1", "hERG current change (%, negative = inhibition) at 1uM": 16.1},
      {"smiles": "COc1ccc(S(=O)(=O)N2CCN(C(=O)c3cc(C)oc3C)CC2)cc1OC", "hERG current change (%, negative = inhibition) at 1uM": 7.81},
      {"smiles": "O=C(CCc1ccccc1)Nc1ccccc1F", "hERG current change (%, negative = inhibition) at 1uM": 7.31},
      {"smiles": "Cc1ccc(S(=O)(=O)N(C)CC(=O)N2CCCC2)cc1", "hERG current change (%, negative = inhibition) at 1uM": 4.88},
      {"smiles": "CN(C(=O)CSc1ncc(C(F)(F)F)cc1Cl)c1c(N)n(Cc2ccccc2)c(=O)[nH]c1=O", "hERG current change (%, negative = inhibition) at 1uM": 4.38},
      {"smiles": "CCC(=O)N1c2ccc(S(=O)(=O)N3CCN(c4ccc([N+](=O)[O-])cc4)CC3)cc2CC1C", "note": "(centres unmarked)", "hERG current change (%, negative = inhibition) at 1uM": -13.2},
      {"smiles": "COc1cccc(NC(=O)CNC(=O)c2ccc(F)cc2)c1", "hERG current change (%, negative = inhibition) at 1uM": 0.948},
      {"smiles": "CC(C)(O)[C@@H]1CC(=O)[C@]2(C)[C@H](CC[C@@]3(C)[C@H](c4ccoc4)OC(=O)[C@H]4O[C@]432)[C@@]1(C)/C=C\\C(=O)O", "hERG current change (%, negative = inhibition) at 1uM": 16.1},
      {"smiles": "CC(C)(C)C(=O)NC(=S)NNC(=O)C(c1ccccc1)c1ccccc1", "hERG current change (%, negative = inhibition) at 1uM": -1.36},
      {"smiles": "CSCCC(C(=O)OCC(=O)c1ccc(C)c(C)c1)N1C(=O)c2ccccc2C1=O", "note": "(centres unmarked)", "hERG current change (%, negative = inhibition) at 1uM": -1.15},
      {"smiles": "COc1ccc(C)cc1NC(=O)NCc1ccc(F)cc1", "hERG current change (%, negative = inhibition) at 1uM": 6.47},
      {"smiles": "CSc1ccccc1NC(=O)Cn1nnc(-c2ccc(S(C)(=O)=O)cc2)n1", "hERG current change (%, negative = inhibition) at 1uM": 13.8},
      {"smiles": "CC(Sc1n[nH]c(N)n1)C(=O)NC1CCCCC1C", "note": "(centres unmarked)", "hERG current change (%, negative = inhibition) at 1uM": 6.82},
      {"smiles": "O=C(c1cc(-c2cccc(Cl)c2)nc2ccccc12)N1CCN(c2ccccn2)CC1", "hERG current change (%, negative = inhibition) at 1uM": 11.4},
      {"smiles": "CC(C)C(=O)NC(=S)N1CCc2ccccc21", "hERG current change (%, negative = inhibition) at 1uM": 15.7},
      {"smiles": "Cc1ccc(CN2CCSc3ccc(C(=O)N4CCC5(CC4)OCCO5)cc32)cc1", "hERG current change (%, negative = inhibition) at 1uM": 3.79},
      {"smiles": "COc1ccccc1NC(=O)CSc1nnc2ccc(-c3ccccn3)nn12", "hERG current change (%, negative = inhibition) at 1uM": 3.98},
      {"smiles": "CCOc1ccccc1CNCC1CCCO1.Cl", "note": "(centres unmarked)", "hERG current change (%, negative = inhibition) at 1uM": 10.5},
      {"smiles": "Cc1cc(C)nc(/N=C(\\N)N2CCCCC2)n1", "hERG current change (%, negative = inhibition) at 1uM": 8.51},
      {"smiles": "COc1ccc(N2CCN(C(c3cccs3)C(C)NS(C)(=O)=O)CC2)cc1", "note": "(centres unmarked)", "hERG current change (%, negative = inhibition) at 1uM": 9.25},
      {"smiles": "CN1CCN(S(=O)(=O)c2cnccc2N2CCN(c3cccc(Cl)c3)CC2)CC1", "hERG current change (%, negative = inhibition) at 1uM": 11.1},
      {"smiles": "CC(C)c1nc2c(s1)CCc1onc(-c3ccc(Cl)cc3)c1-2", "hERG current change (%, negative = inhibition) at 1uM": 13.9},
      {"smiles": "Cc1ccc2nsnc2c1N(S(C)(=O)=O)S(C)(=O)=O", "hERG current change (%, negative = inhibition) at 1uM": 8.35},
      {"smiles": "Br.COC(=O)COc1ccc(C(=O)Cn2c(NCCCO)nc3ccccc32)cc1", "hERG current change (%, negative = inhibition) at 1uM": 7.51},
      {"smiles": "CCCCCCOC(=O)c1ccccc1N", "hERG current change (%, negative = inhibition) at 1uM": 6.63},
      {"smiles": "Cc1ccc(-c2csc(N(CC3CCCO3)C(=O)c3ccco3)n2)cc1", "note": "(centres unmarked)", "hERG current change (%, negative = inhibition) at 1uM": 0.346},
      {"smiles": "CC(=O)Nc1ccc(NC(=O)CCCN2C(=O)c3ccccc3C2=O)cc1", "hERG current change (%, negative = inhibition) at 1uM": 20.8},
      {"smiles": "Cc1ccccc1OCC(=O)OCC(=O)NCCNC(=O)COC(=O)COc1ccccc1C", "hERG current change (%, negative = inhibition) at 1uM": 4.01},
      {"smiles": "CCOC(=O)n1c(SCC(N)=O)nc2ccccc21", "hERG current change (%, negative = inhibition) at 1uM": 3.09},
      {"smiles": "Cc1cc(Br)ccc1OCC(=O)NNC(=O)C(=O)Nc1ccccc1", "hERG current change (%, negative = inhibition) at 1uM": 13},
      {"smiles": "COc1ccc(NC(=O)NNC(=O)COc2ccc3cc(Br)ccc3c2)cc1OC", "hERG current change (%, negative = inhibition) at 1uM": 10.3},
      {"smiles": "CCCNC(=O)c1ccccc1NC(=O)c1ccc2c(=O)n3c(nc2c1)CCC3", "hERG current change (%, negative = inhibition) at 1uM": -9.32},
      {"smiles": "Cc1ccc(S(=O)(=O)N2CCN(C(=O)CC(C)n3cncn3)CC2)cc1C", "note": "(centres unmarked)", "hERG current change (%, negative = inhibition) at 1uM": 14.7},
      {"smiles": "COc1cc(C(C(=O)NC2CCCC2)N(Cc2ccccc2)C(=O)c2snc(C(N)=O)c2N)ccc1O", "note": "(centres unmarked)", "hERG current change (%, negative = inhibition) at 1uM": 8.11},
      {"smiles": "CC(C)C[C@H](NC(=O)C1(c2ccccc2)CCN(C(=O)OC(C)(C)C)CC1)C(=O)N1CCC[C@H]1C(=O)O", "hERG current change (%, negative = inhibition) at 1uM": 13.2},
      {"smiles": "CCCCn1c(C)nc2cc(S(=O)(=O)N3CCOCC3)ccc21", "hERG current change (%, negative = inhibition) at 1uM": 0.87},
      {"smiles": "Cc1ccc(-c2cc(C(=O)Nc3cc(C)on3)no2)cc1", "hERG current change (%, negative = inhibition) at 1uM": 15.4},
      {"smiles": "Cc1ccc(C(=O)CNc2ccccc2C)cc1", "hERG current change (%, negative = inhibition) at 1uM": 12.1}
    ]}
  ]
}
